PubChem BioAssay AID1259407 (Chemical Carcinogenesis Research Information System (CCRIS), 2018)
“Also recorded” adds a separate entry of the source. A number of entries come with more than one value. The other results are left out here. How the calls were made is not given here. There may be further records. Values given together differ for a reason that is not stated; dose, time, organism, isomer or construct need not be as stated for each record. Records carry a tag for their origin. The letters are not those of the source and start again with each entry. Counts like (3×) count equal records among those shown.

Test system: CCRIS mutagenicity, Ames/micronucleus/aberration tests
Test: CCRIS mutagenicity studies
[1] = Test System: MOUSE LYMPHOMA, Strain/Indicator: L5178Y (TK+/TK-), Metabolic Activation: NONE, Method: SUSPENSION/PLATE
[2] = End Point: IN VITRO CHROMOSOMAL ABERRATIONS, Test System: CHL CELLS, Metabolic Activation: NONE
[3] = Test System: MOUSE LYMPHOMA, Strain/Indicator: L5178Y (TK+/TK-), Metabolic Activation: RAT, LIVER, S-9, AROCLOR 1254, Method: SUSPENSION/PLATE
[4] = Test System: AMES SALMONELLA TYPHIMURIUM, Strain/Indicator: TA98, Metabolic Activation: RAT, LIVER, S-9, AROCLOR 1254, Method: STANDARD PLATE
[5] = Test System: AMES SALMONELLA TYPHIMURIUM, Strain/Indicator: TA1535, Metabolic Activation: NONE, Method: STANDARD PLATE

`CC[n+]1c(-c2ccccc2)c2cc(N)ccc2c2ccc(N)cc21` was tested, and the mutagenic call [1] was “inactive; negative [study A]; also recorded: active; positive. reevaluation of results: positive [study B]”.
In the case of `CC1(C)CC2=C(C=O)[C@@]3(C=O)C[C@@]3(C)[C@@H](O)[C@@H]2C1`, the mutagenic call (Test System: AMES SALMONELLA TYPHIMURIUM, Strain/Indicator: TA2637, Metabolic Activation: NONE, Method: STANDARD PLATE) is reported as “active; positive [study A] and inactive; negative [study B]”.
In the case of `COc1ccccc1[N+](=O)[O-]`, the mutagenic call (End Point: IN VITRO CHROMOSOMAL ABERRATIONS, Test System: CHINESE HAMSTER OVARY CELLS, Metabolic Activation: NONE) is reported as “inactive; negative; also recorded: inactive; negative; precipitation occurred at 803.4 ug/ml” and the mutagenic call [2] is reported as “inactive; negative; authors report equivocal results for ploidy changes at 0.4 mg/ml; also recorded: inactive; negative”.
With `O=c1[nH]cnc2c1ncn2[C@H]1CC[C@@H](CO)O1` the mutagenic call [1] was “active; positive [study A]; also recorded: active; positive. reevaluation of results: positive [study B]” and the mutagenic call [3] was “active; positive [study A]; also recorded: active; positive. reevaluation of results: equivocal [study B]”.
With `Cc1cc(O)c2c(c1)C(=O)c1cc(O)cc(O)c1C2=O` the mutagenic call (Test System: AMES SALMONELLA TYPHIMURIUM, Strain/Indicator: TA102, Metabolic Activation: RAT, LIVER, S-9, AROCLOR 1254, Method: STANDARD PLATE) was “inactive; negative [study A] and active; positive [study B]”.
For `CCN(CC)N=O`, the mutagenic call (Test System: AMES SALMONELLA TYPHIMURIUM, Strain/Indicator: TA100, Metabolic Activation: NONE, Method: PREINCUBATION) was “inactive; negative [study A] and active; positive [study B]”, the mutagenic call (Test System: E. COLI, Strain/Indicator: WP2 UVRA, Metabolic Activation: MOUSE, LIVER, S-9, AROCLOR 1254, Method: PREINCUBATION) was “active; positive and inactive; negative” and the mutagenic call (Test System: E. COLI, Strain/Indicator: WP2 UVRA, Metabolic Activation: MOUSE, LIVER, S-9, Method: PREINCUBATION) was “active; positive and inactive; negative”. The mutagenic call (Test System: E. COLI, Strain/Indicator: WP2 UVRA, Metabolic Activation: NONE, Method: PREINCUBATION) was “active; positive and inactive; negative”, the mutagenic call (Test System: E. COLI, Strain/Indicator: WP2 UVRA, Metabolic Activation: RAT, LIVER, S-9, AROCLOR 1254, Method: PREINCUBATION) was “active; positive and inactive; negative” and the mutagenic call (Test System: E. COLI, Strain/Indicator: WP2 UVRA, Metabolic Activation: RAT, LIVER, S-9, AROCLOR 1254, Method: STANDARD PLATE) was “active; positive and inactive; negative”.
`Cc1ccc(N)cc1N` was tested, and the mutagenic call (End Point: In vivo micronucleus, Test System: Micronucleated hepatocytes, Species: Rat, Strain/Sex: F344/Male, Route: Oral) was “inactive; negative and active; positive (p<0.05)”.
With `[Cl][Ni][Cl]` the mutagenic call (End Point: In vitro micronucleus, Test System: Human lymphocytes, Metabolic Activation: None) was “inactive; negative; also recorded: active; positive. ameliorated by addition of curcumin”.
For `CN(C)c1ccc(N)cc1`, the mutagenic call [2] was “inactive; negative and active; positive (structural changes) (2×)”.
With `N[C@@H](CS)C(=O)O` the mutagenic call (Test System: CHINESE HAMSTER V-79, Strain/Indicator: V-79/6-THIOGUANINE, Metabolic Activation: RAT, KIDNEY, S-9, Method: STANDARD PLATE) was “inactive; negative and active; positive”.
With `COc1ccc(NC(C)=O)cc1N` the mutagenic call [2] was “active; positive (structural changes); also recorded: inactive; negative; authors report equivocal results for structural changes at 1.0 and 2.0; also recorded: inactive; negative”.
`Nc1cc2nc3ccccc3nc2cc1N` was tested, and the mutagenic call (Test System: AMES SALMONELLA TYPHIMURIUM, Strain/Indicator: YG1024, Metabolic Activation: NONE, Method: PREINCUBATION) was “active; positive and inactive; negative” and the mutagenic call (Test System: AMES SALMONELLA TYPHIMURIUM, Strain/Indicator: YG1029, Metabolic Activation: NONE, Method: PREINCUBATION) was “active; positive and inactive; negative”.
With `ClC(Cl)Br` the mutagenic call (End Point: IN VITRO CHROMOSOMAL ABERRATIONS, Test System: CHINESE HAMSTER LUNG FIBROBLAST CELLS (CHL/IU), Metabolic Activation: NONE) was “inactive; negative; also recorded: inactive; negative; authors describe as weakly positive”, the mutagenic call (End Point: IN VIVO MICRONUCLEUS, Test System: BONE MARROW POLYCHROMATIC ERYTHROCYTES, Species: MOUSE, Strain/Sex: DDY/MALE, Route: IP) was “inactive; negative; significant increase at highest dose; also recorded: inactive; negative” and the mutagenic call [4] was “active; positive [study A] and inactive; negative [study B]”. For the same molecule, the mutagenic call (Test System: AMES SALMONELLA TYPHIMURIUM, Strain/Indicator: TA100, Metabolic Activation: RAT, LIVER, S-9, AROCLOR 1254, Method: STANDARD PLATE) was “active; positive [study A] and inactive; negative [study B]” and the mutagenic call [5] was “active; positive [study A] and inactive; negative [study B]”.
For `CCOC(=O)CBr`, the mutagenic call [2] was “inactive; negative; test material toxic at 0.0004 mg/ml; metaphase cell division not obse; also recorded: inactive; negative; authors report equivocal results for structural changes at highest dos”.
With `c1cnc2c(c1)ccc1c3cccnc3ccc12` the mutagenic call (Test System: AMES SALMONELLA TYPHIMURIUM, Strain/Indicator: TA100, Metabolic Activation: BACULOVIRUS-TRANSFECTED INSECT CELL MICROSOMES, Method: PREINCUBATION) was “active; positive for strain expressing cyp1a2; also recorded: inactive; negative for strain expressing cyp2a6 or cyp2e1”.
With `C[C@H](CCC(=O)O)[C@H]1CC[C@H]2[C@@H]3[C@H](O)C[C@@H]4C[C@H](O)CC[C@]4(C)[C@H]3CC[C@]12C` the mutagenic call (Test System: AMES SALMONELLA TYPHIMURIUM, Strain/Indicator: TA98, Metabolic Activation: NONE, Method: FLUCTUATION TEST) was “inactive; negative [study A] and active; positive [study B]” and the mutagenic call (Test System: AMES SALMONELLA TYPHIMURIUM, Strain/Indicator: TA100, Metabolic Activation: NONE, Method: FLUCTUATION TEST) was “inactive; negative [study A] and active; positive [study B]”.
`O=C(O)C(Cl)Br` (centres undefined) was tested, and the mutagenic call (Test System: Ames Salmonella typhimurium, Strain/Indicator: TA100, Metabolic Activation: None, Method: Preincubation) was “inactive; negative [study A] and active; positive [study B]”.
With `O=C=Nc1ccc(Cc2ccc(N=C=O)cc2)cc1` the mutagenic call (Test System: AMES SALMONELLA TYPHIMURIUM, Strain/Indicator: TA98, Metabolic Activation: RAT, LIVER, S-9, AROCLOR 1254 (30%), Method: STANDARD PLATE) was “active; positive [sample A] and inactive; negative [sample A] and active; positive [sample B] and inactive; negative [sample B]” and the mutagenic call (Test System: AMES SALMONELLA TYPHIMURIUM, Strain/Indicator: TA100, Metabolic Activation: RAT, LIVER, S-9, AROCLOR 1254 (30%), Method: STANDARD PLATE) was “active; positive [sample A] and inactive; negative [sample A] and active; positive [sample B] and inactive; negative [sample B]”.
`CNC(=O)/C=C(\C)OP(=O)(OC)OC` was tested, and the mutagenic call [5] was “inactive; negative [study A] and active; positive [study B]”.
For `CCCl`, the mutagenic call (Test System: AMES SALMONELLA TYPHIMURIUM, Strain/Indicator: TA100, Metabolic Activation: RAT, LIVER, S-9, AROCLOR 1254 (30%), Method: DESICCATOR) was “active; positive and inactive; negative”.
In the case of `Nc1ccc2ccccc2c1N=Nc1ccccc1`, the mutagenic call [3] is reported as “inactive; negative [study A]; also recorded: inactive; negative. reevaluation of results: negative [study B]”.
In the case of `Cc1c2ccncc2c(C)c2c1[nH]c1ccccc12`, the mutagenic call (Test System: AMES SALMONELLA TYPHIMURIUM, Strain/Indicator: TA98, Metabolic Activation: NONE, Method: STANDARD PLATE) is reported as “active; positive [study A] and inactive; negative [study B]”.
For `Nc1ccc(Cl)cc1`, the mutagenic call (Test System: AMES SALMONELLA TYPHIMURIUM, Strain/Indicator: TA98, Metabolic Activation: HAMSTER, LIVER, S-9, AROCLOR 1254, Method: PREINCUBATION) was “active; positive and inactive; negative”, the mutagenic call (Test System: AMES SALMONELLA TYPHIMURIUM, Strain/Indicator: TA98, Metabolic Activation: RAT, LIVER, S-9, AROCLOR 1254, Method: PREINCUBATION) was “active; positive and inactive; negative” and the mutagenic call [4] was “inactive; negative [study A] and active; positive [study B] and active; positive [study C]”.
